# Laboratory results published in PMC12820563, “FoxP3 forms a head-to-head dimer in vivo and stabilizes its multimerization on adjacent microsatellites”.
# The list shows a part of the results.
# Target: T1, MBP-FoxP1dN (Mus musculus, UniProt P58462 326-579)
# T1 sequence: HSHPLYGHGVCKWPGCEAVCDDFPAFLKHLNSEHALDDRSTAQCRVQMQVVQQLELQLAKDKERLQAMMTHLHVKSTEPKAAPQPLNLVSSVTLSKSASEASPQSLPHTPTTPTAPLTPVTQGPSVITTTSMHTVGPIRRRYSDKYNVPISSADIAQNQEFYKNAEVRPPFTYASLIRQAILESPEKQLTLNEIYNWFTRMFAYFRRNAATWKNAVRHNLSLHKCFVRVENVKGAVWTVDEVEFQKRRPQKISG
# Assay: PD-seq (MBP pull-down with sequencing); 20 mM Tris-HCl pH 7.5, 100 mM NaCl, 1.5 mM MgCl2, 0.4 uM protein, 0.1 uM dsDNA library, 30 min, room temperature, amylose pull-down; high values mean tight binding
# Settings: protein: recombinant; tags: His6-MBP; chain copies: 2; dsDNA, one strand shown
# In short: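 Protein and DNA were mixed at 0.4 µM and 0.1 µM and held for 30 min at room temperature in Tris pH 7.5 buffer with NaCl and MgCl2; the protein was a His6-MBP-tagged, N-terminally truncated mouse FoxP3 or FoxP1 fragment from E. coli, and the DNA a Klenow-filled double-stranded degenerate library. Amylose resin captured the complexes, which were washed three times. Binding is read as reads-per-million enrichment of pull-down versus input after Illumina sequencing, with replicates pooled.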
row,Sequence,binding signal
1,GATGATTGTTCTCCCAGCTGATGAATTTCAATGATCGAGTAAACAAATTTTCCTAATCTTTCTGTTCAAGCGCCATCTAC,0.976 RPM ratio (pull-down/input)
2,GATGATTGTTCTCCCAGCTGATGAATTATAACTATCGAGTAAACAAATTTTCCTAATCTTTCTGTTCAAGCGCCATCTAC,1.07 RPM ratio (pull-down/input)
3,GATGATTGTTCTCCCAGCTGATGAATTCGCTACTTCGAGTAAACAAATTTTCCTAATCTTTCTGTTCAAGCGCCATCTAC,0.872 RPM ratio (pull-down/input)
4,GATGATTGTTCTCCCAGCTGATGAATTTGCCACCTCGAGTAAACAAATTTTCCTAATCTTTCTGTTCAAGCGCCATCTAC,0.982 RPM ratio (pull-down/input)
5,GATGATTGTTCTCCCAGCTGATGAATTCGGCTACTCGAGTAAACAAATTTTCCTAATCTTTCTGTTCAAGCGCCATCTAC,0.808 RPM ratio (pull-down/input)
6,GATGATTGTTCTCCCAGCTGATGAATTAATAGAATCGAGTAAACAAATTTTCCTAATCTTTCTGTTCAAGCGCCATCTAC,1.01 RPM ratio (pull-down/input)
7,GATGATTGTTCTCCCAGCTGATGAATTCAGGTTCTCGAGTAAACAAATTTTCCTAATCTTTCTGTTCAAGCGCCATCTAC,0.857 RPM ratio (pull-down/input)
8,GATGATTGTTCTCCCAGCTGATGAATTCAATCTATCGAGTAAACAAATTTTCCTAATCTTTCTGTTCAAGCGCCATCTAC,0.893 RPM ratio (pull-down/input)
9,GATGATTGTTCTCCCAGCTGATGAATTGACCGCCTCGAGTAAACAAATTTTCCTAATCTTTCTGTTCAAGCGCCATCTAC,0.854 RPM ratio (pull-down/input)
10,GATGATTGTTCTCCCAGCTGATGAATTTACGGTCTCGAGTAAACAAATTTTCCTAATCTTTCTGTTCAAGCGCCATCTAC,1.02 RPM ratio (pull-down/input)
11,GATGATTGTTCTCCCAGCTGATGAATTCTTCGCCTCGAGTAAACAAATTTTCCTAATCTTTCTGTTCAAGCGCCATCTAC,0.881 RPM ratio (pull-down/input)
12,GATGATTGTTCTCCCAGCTGATGAATTCCGATCTTCGAGTAAACAAATTTTCCTAATCTTTCTGTTCAAGCGCCATCTAC,0.773 RPM ratio (pull-down/input)
13,GATGATTGTTCTCCCAGCTGATGAATTCGGAACGTCGAGTAAACAAATTTTCCTAATCTTTCTGTTCAAGCGCCATCTAC,0.811 RPM ratio (pull-down/input)
14,GATGATTGTTCTCCCAGCTGATGAATTATGCTGCTCGAGTAAACAAATTTTCCTAATCTTTCTGTTCAAGCGCCATCTAC,1.03 RPM ratio (pull-down/input)
15,GATGATTGTTCTCCCAGCTGATGAATTACGGGGTTCGAGTAAACAAATTTTCCTAATCTTTCTGTTCAAGCGCCATCTAC,0.931 RPM ratio (pull-down/input)
16,GATGATTGTTCTCCCAGCTGATGAATTGTGGAGATCGAGTAAACAAATTTTCCTAATCTTTCTGTTCAAGCGCCATCTAC,0.948 RPM ratio (pull-down/input)
17,GATGATTGTTCTCCCAGCTGATGAATTCGCGCGGTCGAGTAAACAAATTTTCCTAATCTTTCTGTTCAAGCGCCATCTAC,0.853 RPM ratio (pull-down/input)
18,GATGATTGTTCTCCCAGCTGATGAATTCCAAGTCTCGAGTAAACAAATTTTCCTAATCTTTCTGTTCAAGCGCCATCTAC,0.7 RPM ratio (pull-down/input)
19,GATGATTGTTCTCCCAGCTGATGAATTCGCTGGATCGAGTAAACAAATTTTCCTAATCTTTCTGTTCAAGCGCCATCTAC,0.878 RPM ratio (pull-down/input)
20,GATGATTGTTCTCCCAGCTGATGAATTCGGCTGTTCGAGTAAACAAATTTTCCTAATCTTTCTGTTCAAGCGCCATCTAC,0.85 RPM ratio (pull-down/input)
21,GATGATTGTTCTCCCAGCTGATGAATTTCGTTTTTCGAGTAAACAAATTTTCCTAATCTTTCTGTTCAAGCGCCATCTAC,1.02 RPM ratio (pull-down/input)

row,Sequence,binding signal
1,GATGATTGTTCTCCCAGCTGATGAATTGCGGAAGTCGAGTAAACAAATTTTCCTAATCTTTCTGTTCAAGCGCCATCTAC,1.03 RPM ratio (pull-down/input)
2,GATGATTGTTCTCCCAGCTGATGAATTTGCTCTCTCGAGTAAACAAATTTTCCTAATCTTTCTGTTCAAGCGCCATCTAC,0.873 RPM ratio (pull-down/input)
3,GATGATTGTTCTCCCAGCTGATGAATTCTAAAACTCGAGTAAACAAATTTTCCTAATCTTTCTGTTCAAGCGCCATCTAC,0.844 RPM ratio (pull-down/input)
4,GATGATTGTTCTCCCAGCTGATGAATTAGAGTAGTCGAGTAAACAAATTTTCCTAATCTTTCTGTTCAAGCGCCATCTAC,0.974 RPM ratio (pull-down/input)
5,GATGATTGTTCTCCCAGCTGATGAATTAGGGGACTCGAGTAAACAAATTTTCCTAATCTTTCTGTTCAAGCGCCATCTAC,0.833 RPM ratio (pull-down/input)
6,GATGATTGTTCTCCCAGCTGATGAATTGTGAGTCTCGAGTAAACAAATTTTCCTAATCTTTCTGTTCAAGCGCCATCTAC,0.952 RPM ratio (pull-down/input)
7,GATGATTGTTCTCCCAGCTGATGAATTTCAGTAATCGAGTAAACAAATTTTCCTAATCTTTCTGTTCAAGCGCCATCTAC,1.32 RPM ratio (pull-down/input)
8,GATGATTGTTCTCCCAGCTGATGAATTTTCCACATCGAGTAAACAAATTTTCCTAATCTTTCTGTTCAAGCGCCATCTAC,1.11 RPM ratio (pull-down/input)
9,GATGATTGTTCTCCCAGCTGATGAATTGCGATTTTCGAGTAAACAAATTTTCCTAATCTTTCTGTTCAAGCGCCATCTAC,1.25 RPM ratio (pull-down/input)
10,GATGATTGTTCTCCCAGCTGATGAATTTGCGGAGTCGAGTAAACAAATTTTCCTAATCTTTCTGTTCAAGCGCCATCTAC,0.799 RPM ratio (pull-down/input)
11,GATGATTGTTCTCCCAGCTGATGAATTGCGAAAGTCGAGTAAACAAATTTTCCTAATCTTTCTGTTCAAGCGCCATCTAC,1.08 RPM ratio (pull-down/input)
12,GATGATTGTTCTCCCAGCTGATGAATTCTTTAGTTCGAGTAAACAAATTTTCCTAATCTTTCTGTTCAAGCGCCATCTAC,0.861 RPM ratio (pull-down/input)
13,GATGATTGTTCTCCCAGCTGATGAATTGACTTAGTCGAGTAAACAAATTTTCCTAATCTTTCTGTTCAAGCGCCATCTAC,1.03 RPM ratio (pull-down/input)
14,GATGATTGTTCTCCCAGCTGATGAATTACTTTCTTCGAGTAAACAAATTTTCCTAATCTTTCTGTTCAAGCGCCATCTAC,1.06 RPM ratio (pull-down/input)
15,GATGATTGTTCTCCCAGCTGATGAATTCTGATTCTCGAGTAAACAAATTTTCCTAATCTTTCTGTTCAAGCGCCATCTAC,0.884 RPM ratio (pull-down/input)
16,GATGATTGTTCTCCCAGCTGATGAATTACCATAGTCGAGTAAACAAATTTTCCTAATCTTTCTGTTCAAGCGCCATCTAC,0.965 RPM ratio (pull-down/input)
17,GATGATTGTTCTCCCAGCTGATGAATTCCCTACGTCGAGTAAACAAATTTTCCTAATCTTTCTGTTCAAGCGCCATCTAC,0.821 RPM ratio (pull-down/input)
18,GATGATTGTTCTCCCAGCTGATGAATTTCTTAAGTCGAGTAAACAAATTTTCCTAATCTTTCTGTTCAAGCGCCATCTAC,0.87 RPM ratio (pull-down/input)
19,GATGATTGTTCTCCCAGCTGATGAATTACGTCCTTCGAGTAAACAAATTTTCCTAATCTTTCTGTTCAAGCGCCATCTAC,0.982 RPM ratio (pull-down/input)
20,GATGATTGTTCTCCCAGCTGATGAATTCATGAAGTCGAGTAAACAAATTTTCCTAATCTTTCTGTTCAAGCGCCATCTAC,0.839 RPM ratio (pull-down/input)
21,GATGATTGTTCTCCCAGCTGATGAATTCGTCAACTCGAGTAAACAAATTTTCCTAATCTTTCTGTTCAAGCGCCATCTAC,0.958 RPM ratio (pull-down/input)

row,Sequence,binding signal
1,GATGATTGTTCTCCCAGCTGATGAATTTTGTAGCTCGAGTAAACAAATTTTCCTAATCTTTCTGTTCAAGCGCCATCTAC,1.03 RPM ratio (pull-down/input)
2,GATGATTGTTCTCCCAGCTGATGAATTATGTTACTCGAGTAAACAAATTTTCCTAATCTTTCTGTTCAAGCGCCATCTAC,1.21 RPM ratio (pull-down/input)
3,GATGATTGTTCTCCCAGCTGATGAATTCAATAATTCGAGTAAACAAATTTTCCTAATCTTTCTGTTCAAGCGCCATCTAC,1.06 RPM ratio (pull-down/input)
4,GATGATTGTTCTCCCAGCTGATGAATTCGGCTTGTCGAGTAAACAAATTTTCCTAATCTTTCTGTTCAAGCGCCATCTAC,0.828 RPM ratio (pull-down/input)
5,GATGATTGTTCTCCCAGCTGATGAATTGCCAGCTTCGAGTAAACAAATTTTCCTAATCTTTCTGTTCAAGCGCCATCTAC,0.907 RPM ratio (pull-down/input)
6,GATGATTGTTCTCCCAGCTGATGAATTGACCAGCTCGAGTAAACAAATTTTCCTAATCTTTCTGTTCAAGCGCCATCTAC,0.83 RPM ratio (pull-down/input)
7,GATGATTGTTCTCCCAGCTGATGAATTAGTAATTTCGAGTAAACAAATTTTCCTAATCTTTCTGTTCAAGCGCCATCTAC,1.07 RPM ratio (pull-down/input)
8,GATGATTGTTCTCCCAGCTGATGAATTACGAGGTTCGAGTAAACAAATTTTCCTAATCTTTCTGTTCAAGCGCCATCTAC,0.966 RPM ratio (pull-down/input)
9,GATGATTGTTCTCCCAGCTGATGAATTCTCCCTATCGAGTAAACAAATTTTCCTAATCTTTCTGTTCAAGCGCCATCTAC,0.991 RPM ratio (pull-down/input)
10,GATGATTGTTCTCCCAGCTGATGAATTTCCCGCATCGAGTAAACAAATTTTCCTAATCTTTCTGTTCAAGCGCCATCTAC,1.09 RPM ratio (pull-down/input)
11,GATGATTGTTCTCCCAGCTGATGAATTATTGGCGTCGAGTAAACAAATTTTCCTAATCTTTCTGTTCAAGCGCCATCTAC,1.13 RPM ratio (pull-down/input)
12,GATGATTGTTCTCCCAGCTGATGAATTTAACCTGTCGAGTAAACAAATTTTCCTAATCTTTCTGTTCAAGCGCCATCTAC,0.834 RPM ratio (pull-down/input)
13,GATGATTGTTCTCCCAGCTGATGAATTCATCCATTCGAGTAAACAAATTTTCCTAATCTTTCTGTTCAAGCGCCATCTAC,0.889 RPM ratio (pull-down/input)
14,GATGATTGTTCTCCCAGCTGATGAATTTTGATCTTCGAGTAAACAAATTTTCCTAATCTTTCTGTTCAAGCGCCATCTAC,0.96 RPM ratio (pull-down/input)
15,GATGATTGTTCTCCCAGCTGATGAATTCGCCGAGTCGAGTAAACAAATTTTCCTAATCTTTCTGTTCAAGCGCCATCTAC,0.759 RPM ratio (pull-down/input)
16,GATGATTGTTCTCCCAGCTGATGAATTACTTCGTTCGAGTAAACAAATTTTCCTAATCTTTCTGTTCAAGCGCCATCTAC,1.03 RPM ratio (pull-down/input)
17,GATGATTGTTCTCCCAGCTGATGAATTCGCTAGATCGAGTAAACAAATTTTCCTAATCTTTCTGTTCAAGCGCCATCTAC,0.861 RPM ratio (pull-down/input)
18,GATGATTGTTCTCCCAGCTGATGAATTAGTTCGTTCGAGTAAACAAATTTTCCTAATCTTTCTGTTCAAGCGCCATCTAC,0.937 RPM ratio (pull-down/input)
19,GATGATTGTTCTCCCAGCTGATGAATTACGTAGCTCGAGTAAACAAATTTTCCTAATCTTTCTGTTCAAGCGCCATCTAC,0.976 RPM ratio (pull-down/input)
20,GATGATTGTTCTCCCAGCTGATGAATTTGCGACGTCGAGTAAACAAATTTTCCTAATCTTTCTGTTCAAGCGCCATCTAC,1.04 RPM ratio (pull-down/input)
21,GATGATTGTTCTCCCAGCTGATGAATTGTACCCGTCGAGTAAACAAATTTTCCTAATCTTTCTGTTCAAGCGCCATCTAC,0.942 RPM ratio (pull-down/input)
